# PubChem BioAssay AID1159614 (National Center for Advancing Translational Sciences (NCATS), 2016)
# The whole screen tested about 45,000 compounds, of which about 65 (0.1%) were called active. Calls follow the shape of the dose curve; as a rule, active = well fitted activation curve with a large enough effect; inconclusive = small, poorly fitted or top-dose-only effect; inactive = no such curve, though single readings can be large or run the other way. The list shows a part of the results.
# Biological target: Galactocerebrosidase (Homo sapiens) (UniProt P54803)
# Sequence of UniProt P54803 (P54803 whole entry, looked up): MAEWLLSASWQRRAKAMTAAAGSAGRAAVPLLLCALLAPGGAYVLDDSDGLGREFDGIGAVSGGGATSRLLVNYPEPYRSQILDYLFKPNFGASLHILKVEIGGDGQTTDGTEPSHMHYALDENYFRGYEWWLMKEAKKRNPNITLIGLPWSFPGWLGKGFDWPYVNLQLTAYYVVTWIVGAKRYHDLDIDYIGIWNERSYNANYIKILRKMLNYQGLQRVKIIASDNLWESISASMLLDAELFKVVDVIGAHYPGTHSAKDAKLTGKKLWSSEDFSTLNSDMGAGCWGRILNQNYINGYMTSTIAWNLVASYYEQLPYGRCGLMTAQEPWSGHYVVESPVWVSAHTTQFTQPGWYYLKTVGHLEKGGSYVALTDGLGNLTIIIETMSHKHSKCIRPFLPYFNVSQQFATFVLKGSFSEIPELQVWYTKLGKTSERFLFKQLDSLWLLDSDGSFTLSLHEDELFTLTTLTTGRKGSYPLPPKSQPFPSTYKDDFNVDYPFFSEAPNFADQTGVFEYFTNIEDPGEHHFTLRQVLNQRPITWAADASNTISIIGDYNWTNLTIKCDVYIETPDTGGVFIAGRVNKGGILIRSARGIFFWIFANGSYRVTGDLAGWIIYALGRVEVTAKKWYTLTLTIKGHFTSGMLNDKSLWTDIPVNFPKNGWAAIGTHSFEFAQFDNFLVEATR
# Assay: A Novel Cell-Based Assay to Identify Small Molecules for B -Galactocerebrosidase; also: nearly all actives have a fitted effect of over 65% in size; as to activation: 0% is about no effect
# Conditions: 145M-Twi-hGALC-G270D cells (Twitcher mouse brain line with human GALC G270D), HMU-beta-Gal fluorescence, 48 h; series mostly up to 57.5 µM; activation: at the top concentration
# Summary of the method: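 Fluorescence readout: HMU-β-gal cleavage by mutant GALC (0.1 mM final, citrate/phosphate pH 5.2 with 1 mg/mL taurocholate), stopped with carbonate/bicarbonate plus Triton X-100. Cells: murine Twitcher 145M-Twi expressing human G270D GALC; qHTS for activators.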
# Potency is read from the fitted curve at half-maximal effect.
SMILES,activation,Potency
COCCNC(=O)c1cnn(-c2cccc(C)c2)c1-n1cccc1,inactive: -5.14%,
CC1CCN(S(=O)(=O)c2cc(C(=O)NCc3ccccc3)n(C)c2)CC1,inactive: -5.28%,
COc1cc2ncc3c(-c4ccccc4)nn(CC(=O)NC4CCCCC4)c3c2cc1OC,inactive: -6.49%,
Cc1nc(N2CCCC2)ncc1C(=O)NCc1ccc(F)cc1,inactive: -12.6%,
Cc1cn2c(=O)c(S(=O)(=O)Nc3ccc(N4CCOCC4)cc3)c(C)nc2s1,inactive: -1.48%,
Fc1cccc(-c2nnn3c2nc(NCc2ccc4c(c2)OCO4)c2ccccc23)c1,inactive: -1.59%,
Cc1cc(N2CCC(C(=O)Nc3ccccc3Cl)CC2)n2nc(C)c(-c3ccc(Cl)cc3)c2n1,inactive: -12.2%,
Cc1ccc2occ(CC(=O)Nc3ccc(Cl)c(C(F)(F)F)c3)c2c1,inactive: -3.8%,
COc1ccc(C2=C(C)C(N3CCN(c4ccc(OC)cc4)CC3)=NS2(=O)=O)cc1,inactive: -10.2%,
CCOCCCn1c(=N)c(C(=O)NC(C)c2ccccc2)cc2c(=O)n3cccc(C)c3nc21 (configuration not stated),,active: 20 µM
CCC(CC)C(=O)Nc1nnc(S(=O)(=O)N2c3ccccc3CC2C)s1 (configuration not stated),inactive: -22.1%,
CN(C(=O)c1ccc2c(c1)N(Cc1ccc(F)cc1)C(=O)c1ccccc1S2(=O)=O)C1CCCCC1,inactive: -0.82%,
COc1ccc(C(=O)NNc2ncnc3c2cnn3-c2ccc(C)cc2C)cc1,inactive: -13%,
CCc1ccc(CN(C(=O)Nc2cccc(Cl)c2)c2ccccn2)cc1,inactive: -22.2%,
COC(=O)c1nc2n(n1)C(c1cc(OC)ccc1OC)C=C(c1ccc(Br)cc1)N2 (configuration not stated),inactive: -8.01%,
CCOC(=O)Cn1c(=O)oc2cc(S(=O)(=O)NC(C)c3ccccc3)ccc21 (configuration not stated),inactive: -14.1%,
COc1ccccc1CNC(=O)c1ccc(-n2c(C)cc3c2CCCC3)cc1,inactive: -11.5%,
COc1ccc(Cl)cc1NC(=O)c1cnc(N2CCCCC2)c2ccccc12,inactive: -7.31%,
Cc1c(Cl)cccc1NS(=O)(=O)c1ccc(NS(=O)(=O)c2ccc3c(c2)OCCO3)cc1,inactive: -11.1%,
O=C(c1ccccc1F)N1c2nc(-c3ccco3)nn2C2(CCCCC2)[C@@H]2CCCC[C@@H]21,inactive: 3.3%,
CCOc1ccc(NC(=O)CCn2cccn2)cc1,inactive: -10.7%,

SMILES,activation,Potency
CCCCOC(=O)/C(C#N)=C\c1ccc(-c2ccc(Cl)cc2)o1,inactive: -8.36%,
CCOc1ccc(NC(=O)C2CCN(S(=O)(=O)c3c(C)noc3/C=C/c3ccco3)CC2)cc1,inactive: -13.1%,
CCOC(=O)c1ccccc1NC(=O)N1CC(C)Oc2ccc(C)cc21 (configuration not stated),inactive: 0.384%,
O=C(Nc1ccc(Br)cc1)C1CCN(c2ncccn2)CC1,inactive: -10.6%,
COc1cc(NC(=O)C(=O)Nc2ccc3nc4n(c(=O)c3c2)CCCCC4)cc(OC)c1OC,inactive: -7.35%,
CCOC(=O)N1CCN(C(=O)c2ccc3c(c2)N(Cc2cccc(Cl)c2)C(=O)c2ccccc2S3=O)CC1 (configuration not stated),inactive: -6.93%,
CC(=O)c1ccc(C(=O)N(Cc2cccnc2)c2nc3c(C)c(C)ccc3s2)cc1,inactive: -8.63%,
O=C1CN(C(=O)COc2ccc(Cl)cc2)C(c2ccc(F)cc2)c2cc(Cl)ccc2N1 (configuration not stated),inactive: -25.9%,
Cc1ccc(-c2nc3ccccn3c2Nc2ccc3c(c2)OCCO3)o1,inactive: -8.65%,
COc1ccc(Br)cc1CNC(=O)CCc1cn(Cc2ccc(C)cc2)c2ccccc12,inactive: -19%,
CC1=C(c2ccc(Cl)cc2)S(=O)(=O)N=C1N1CCC(C(=O)NCCc2ccco2)CC1,inactive: -11.4%,
CCOC(=O)c1ccccc1NC(=O)c1cc2c(s1)-c1ccccc1SC2,inactive: -27.8%,
COC(=O)c1sccc1S(=O)(=O)N1CCN(c2ccc(Cl)cc2)CC1,inactive: -6.62%,
Cc1scc(CN2CCN(c3ccc(F)cc3)CC2)c1C,inactive: -0.567%,
COc1ccccc1N1CCN(S(=O)(=O)CCNC(=O)COc2ccccc2F)CC1,inactive: -16.8%,
Cc1ccc(CNc2ncccc2-c2nc(-c3ccc(Cl)cc3)no2)cc1,inactive: 5.56%,
O=C(CCCn1c(=O)c2sccc2n(Cc2ccc(Cl)cc2)c1=O)NCc1ccc2c(c1)OCO2,inactive: -13.4%,
CC(C)CC(NC(=O)C1CCCCC1)C(=O)Nc1cccc(C(F)(F)F)c1 (configuration not stated),inactive: -3.34%,
CC(C)c1ccc(NC(=O)CN2C(=O)CSc3ccc(S(=O)(=O)N4CCCC4)cc32)cc1,inactive: -19.9%,
Cc1ccc(-c2nc(S(=O)(=O)c3ccccc3)c(SCC(=O)NC3CCCCC3)o2)cc1,inactive: -2.42%,
Cc1ccc(Cl)cc1N1CCN(C(=O)c2nn(C)c3c2CS(=O)(=O)c2ccccc2-3)CC1,inactive: -5.34%,

SMILES,activation,Potency
COc1ccc(CCNC(=O)CCc2cn(Cc3ccc(F)cc3)c3ccccc23)cc1OC,inactive: 2.06%,
Cc1ccc(Cl)cc1NC(=O)c1cc(CN2CCCC2)on1,inactive: -14.3%,
CCc1cccc(C)c1NC(=O)c1cc(S(=O)(=O)N2CCCCCC2)cn1C,inactive: -15.7%,
COc1ccc(-c2cc(C(F)(F)F)nc(SCCC(=O)Nc3cccc(OC)c3)n2)cc1,inactive: 3.99%,
O=C(NC1CC1)c1ccc(Cn2c(SCc3ccc(F)cc3)nc3cccnc32)cc1,inactive: 3.53%,
Cc1cccc(N2CCN(C(=O)c3cccn3-c3nnc(N4CCCCC4)s3)CC2)c1C,inactive: -29.1%,
CCc1ccc(NC(=O)c2ccc(NS(=O)(=O)c3c(C)noc3C)cc2)cc1,inactive: -15.6%,
CCCOc1ccc(C(=O)Nc2ccc(-c3cc4ccccc4oc3=O)c(C)c2)cc1,inactive: -12%,
CCc1ccc(CNC(=O)c2sc3nc[nH]c(=O)c3c2C)cc1,inactive: -0.794%,
O=C(COc1ccc(F)cc1)Nc1ccc(S(=O)(=O)N(Cc2ccccc2)c2ccccc2)cc1,inactive: -18.1%,
COc1ccc(NC(=O)CCn2c(-c3ccc(F)cc3)cc(C(C)=O)c2C)c(OC)c1,inactive: -15.9%,
O=c1cc(CSc2ccccc2)[nH]c2ccc(F)cc12,inactive: 3.35%,
CCCNc1ncnc2c1c(-c1ccccc1)cn2-c1ccc(OCC)cc1,inactive: -26.5%,
COc1ccc(-c2cc(C(C)=O)c(C)n2CCC(=O)Nc2ccc(C)c(Cl)c2)cc1,inactive: -12.4%,
COc1ccc(OC)c(CNc2ncnc3c2nc2n3CCCC2)c1,inactive: -6.59%,
CCc1c(C)nc(SCc2nc(-c3ccccc3C)no2)[nH]c1=O,inactive: 7%,
CCN(C(=O)Cc1c(C(=O)O)c(C)cn1C)c1cccc(Cl)c1,inactive: -7.12%,
CCc1ccc(Nc2nnc(-c3cc4cc(OC)ccc4oc3=O)s2)cc1,inactive: -5.94%,
Cc1ccc(NC(=O)c2c(C)oc3ccc(O)c(CN(C)Cc4ccccc4)c23)c(C)c1,inactive: -19%,
CC(=O)Nc1ccc(Nc2c(CCC(C)C)c(C)c(C#N)c3nc4ccccc4n23)cc1,inactive: 1.46%,
